Results as given in PubChem BioAssay (NCATS).
Several values for one entry are separate records, joined by “and”; a condition that tells them apart may be missing. Equal values may be shown once. Inconclusive means that the source gave no clear call. Such entries were picked first, then a sample of the others. Where the call is inconclusive, the potency comes from a doubtful curve fit. More than one record can exist for a structure, and the calls need not agree. Activity calls are given as the source filed them. Calls follow the shape of the dose curve; as a rule, active = well fitted cell-killing curve with a large enough effect; inconclusive = small, poorly fitted or top-dose-only effect, or effect the other way; inactive = no such curve, though single readings can be large or run the other way.

Assay: Viability qHTS for spleen associated tyrosine kinase inhibitor (SYKi) drug resistant MV4-11 cells (AID 1963824); also: nearly all actives have a fitted effect of over 35% in size
Conditions: SYKi-resistant MV4-11 viability, CellTiter-Glo, 72 h; series mostly up to 45 µM
Summary of the method: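 SYK-inhibitor-resistant MV4-11 AML cells were seeded at 500 per well onto compound and cultured 72 hours (37 °C, 5% CO2). CellTiter-Glo was then added, and after 10 min at room temperature, luminescence gave viability.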
Potency is read from the fitted curve at half-maximal effect; tags tell the direction and shape of the fitted curve.

| Structure (SMILES) | Potency |
| --- | --- |
| Cc1nc2ccc(-n3ncc(C(=O)c4cc5ccccc5[nH]4)c3N)cc2[nH]1 | active: 2.59 µM and active: 4.68 µM |
| FC(F)(F)C(F)(F)C(F)(F)C(F)(F)C(F)(F)C(F)(F)C(F)(F)C(F)(F)Br | inactive |
| Cc1ccnc(NS(=O)(=O)c2ccc(N)cc2)n1 | inactive |
| O=C1NC(=O)/C(=C\c2ccc(-c3ccc(F)cc3)o2)S1 | inconclusive: 16.6 µM [cytotoxic, partial curve, poor fit] |
| C/C(=N\O)[C@@H](C)NCC(C)(C)CN[C@H](C)/C(C)=N/O | inactive |
| C=CC(=O)Nc1ccc(F)c(-c2ncnc3[nH]cc(C(=O)OCC)c23)c1 | inconclusive: 13.2 µM [cytotoxic, partial curve] |
| COc1ccccc1N1CCN(CCCNc2cc(=O)n(C)c(=O)n2C)CC1 | inactive |
| Cn1cc(-c2ccc3c(c2)CCN3C(=O)Cc2cccc(C(F)(F)F)c2)c2c(N)ncnc21 | active: 2.06 µM and active: 4.68 µM |
| COc1ccc([C@@H]2Sc3ccccc3N(CCN(C)C)C(=O)[C@@H]2OC(C)=O)cc1 | inactive |
| OC[C@H]1O[C@@H](n2cnc3c(=S)nc[nH]c32)[C@H](O)[C@@H]1O | active: 1.19 µM |
| Cc1ncc(CSSCc2cnc(C)c(O)c2CO)c(CO)c1O | inconclusive: 11.9 µM [cytotoxic, partial curve, poor fit] |
| CCOc1ncc(F)c(=O)[nH]1 | inactive |
| C[C@H]1C[C@H]2[C@@H]3CCC4=CC(=O)C=C[C@]4(C)[C@@]3(Cl)[C@@H](O)C[C@]2(C)[C@@]1(O)C(=O)CO | active: 13.3 µM |
| CCNC1(C(N)=O)CCN(c2ncnc3c2nc(-c2ccccc2Cl)n3-c2ccc(Cl)cc2)CC1 | active: 16.6 µM |
| CC(=O)O/N=C1/C(c2c(O)[nH]c3cc(Br)ccc23)=Nc2ccccc21 | inconclusive: 130 nM [cytotoxic, full curve] and active: 209 nM |
| CC(C)COCC(CN(Cc1ccccc1)c1ccccc1)N1CCCC1 (centres undefined) | active: 15 µM and active: 11.8 µM |
| O=C(/C=C/C=C/c1ccc2c(c1)OCO2)N1CCCCC1 | inconclusive: 18.4 µM [cytotoxic, single point] and inconclusive: 23.5 µM [cytotoxic, partial curve] |
| COc1cc2c3c(n(CCCn4ccnc4)c(=O)c2cc1OC)-c1cc2c(cc1C3=O)OCO2 | inconclusive: 0.0235 µM [cytotoxic, full curve, poor fit] |
| Nc1ncnc2c1C(=O)N(c1ccc(C3CCC(CC(=O)O)CC3)cc1)CCO2 (centres undefined) | inactive |
| O=C(CCN1CCN2CCCC2C1)N1c2ccccc2Sc2ccc(Cl)cc21 (centres undefined) | inconclusive: 4.11 µM [cytotoxic, partial curve, poor fit] |
| Cc1cc2nc3c(=O)[nH]c(=O)nc-3n(C[C@H](O)[C@H](O)[C@H](O)CO)c2cc1C | inconclusive: 5.17 µM [cytotoxic, partial curve, poor fit] |
| CCCCCC=CCC=CCCCCCCCC(=O)OCC | inconclusive: 33.5 µM [cytotoxic, single point] |
| Cc1onc(-c2ccc(F)cc2)c1COc1ccc(C(=O)N2CCS(=O)(=O)CC2)cn1 | inconclusive: 18.6 µM [cytotoxic, partial curve] |
| Nc1nc(OCc2cc(Br)cs2)c2[nH]cnc2n1 | inconclusive: 18.4 µM [cytotoxic, partial curve] |
| CC(=O)O[C@]1(C(C)=O)CC[C@H]2[C@@H]3C=C(C)C4=CC(=O)CC[C@]4(C)[C@H]3CC[C@@]21C | inconclusive: 4.73 µM [cytotoxic, partial curve, poor fit] |
| CN1CCN(c2c(F)cc3c(=O)c(C(=O)O)cn4c3c2SCC4)CC1 | inconclusive: 11.9 µM [cytotoxic, partial curve, poor fit] |
| C=C1/C(=C/C=C2\CCCC3(C)[C@@H]([C@H](C)/C=C/C=C/C(O)(CC)CC)CC[C@@H]23)C[C@@H](O)C[C@@H]1O (some centres undefined) | inconclusive: 0.0235 µM [cytotoxic, full curve] |
| O=C(NO)c1cnc(N2C[C@H]3C[C@@H]2CN3c2cc(C(F)(F)F)ccn2)nc1 | active: 2.35 µM |
| O=C(O)c1ccccc1C(=O)Nc1ccc(S(=O)(=O)Nc2nccs2)cc1 | inactive |
